The other results are listed elsewhere or left out.

Experiment in all cases: glycan array binding signal (z-score within array); higher = stronger binding
What all share (details): glycan notation: IUPAC condensed, linker removed; mutation: E41G

Assay [1] deals with Gal(b1-4)GlcNAc(b1-6)Gal(b1-4)GlcNAc. A digest of the protocol: (§1)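 Columns mapping to the same glycan were averaged after glycan names were converted to IUPAC-condensed notation. The data come from 3228 arrays in the Consortium for Functional Glycomics database, limited to those with an available protein sequence. Binding is reported as a within-array Z-score averaged across arrays of one protein sequence and across linkers.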

The target in assay [2] is Gal(b1-4)GlcNAc(b1-6)GalNAc. Put shortly:
as §1

For assay [3], the target named is Gal(b1-4)GlcNAc(b1-6)[Gal(b1-3)]GalNAc. A digest of the protocol: as §1
Assay [4] concerns the target Gal(b1-4)GlcNAc(b1-6)[Gal(b1-4)GlcNAc(b1-3)]GalNAc. A digest of the protocol: as §1
The target in assay [5] is Gal(b1-4)GlcNAc6P. A digest of the protocol:
as §1

The target of assay [6] is Gal(b1-6)Gal. A digest of the protocol: as §1
For assay [7], the target named is Gal3S(b1-3)GalNAc. Put shortly: as §1
Assay [8] deals with Gal3S(b1-3)GlcNAc. A digest of the protocol:
as §1

Assay [9] has as its target Gal3S(b1-3)[Fuc(a1-4)]GlcNAc. A digest of the protocol: as §1
Assay [10] addresses Gal3S(b1-4)Glc. Put shortly: as §1
Assay [11] deals with Gal3S(b1-4)Glc6S. A digest of the protocol:
as §1

Assay [12] has as its target Gal3S(b1-4)GlcNAc. Put shortly: as §1
Assay [13] concerns the target Gal3S(b1-4)[Fuc(a1-3)]Glc6S. A digest of the protocol:
as §1

Assay [14] deals with Gal3S(b1-4)[Fuc(a1-3)]GlcNAc. A digest of the protocol:
as §1

Assay [15] deals with Gal3S(b1-4)[Fuc(a1-3)]GlcNAc6S. A digest of the protocol: as §1
Assay [16] addresses Gal3S4S(b1-4)GlcNAc. Put shortly: as §1
Assay [17] concerns the target Gal3S6S(b1-4)GlcNAc. A digest of the protocol:
as §1

Assay [18] addresses Gal3S6S(b1-4)GlcNAc6S. A digest of the protocol: as §1
Assay [19] addresses Gal4S(b1-4)GlcNAc. A digest of the protocol: as §1
Assay [20] concerns the target Gal4S6S(b1-4)GlcNAc. Put shortly: as §1
Assay [21] has as its target Gal6P(b1-4)GlcNAc. A digest of the protocol: as §1
Assay [22] deals with Gal6S(b1-3)GlcNAc. A digest of the protocol: as §1
Assay [23] concerns the target Gal6S(b1-3)GlcNAc6S. Put shortly:
as §1

B1: CVN-E41G (protein)
chain: MHHHHHHENLYFQSGNFSQACYNSAIQGSVLTSTCIRTNGGYNTSSIDLNSVIGNVDGSLKWQGSNFIETCRNTQLAGSSELAAECKTRAQQFVSTKINLDDHIAAIDGTLKYE
On to B1, for which the “glycan array binding signal (z-score)” value was -0.173 in assay [1]; -0.14 in assay [2]; -0.057 in assay [3]; -0.157 in assay [4]; -0.122 in [5]; -0.136 in assay [6]. In addition, the “glycan array binding signal (z-score)” value is -0.179 in [7]; -0.179 in assay [8]; -0.134 in assay [9]; -0.161 in [10]; -0.146 in assay [11]; -0.147 in assay [12]. The “glycan array binding signal (z-score)” value was -0.103 in assay [13]; -0.162 in assay [14]; -0.148 in assay [15]; -0.183 in assay [16]; -0.185 in assay [17]; -0.172 in assay [18]. Moreover, the “glycan array binding signal (z-score)” value in [19] is -0.189; in assay [20], -0.19; in [21] it was -0.147; in assay [22], -0.171; in assay [23] it was -0.147.

(Values after the supplement of paper PMC8728848.)
